For one molecule, Kd results are on record in patent US20200079851A1 (University of Texas, published 2020).

For assay [1], the target named is T1, human APOE3 (human, UniProt P02649).
T1 construct: In MST the protein was unlabeled His-APOE (# CI06, Novoprotein)
The assay can be described thus: SPR; LILRB4-Fc captured on Protein A, APOE 1.5625-100 nM. How it is done: (§1) FIGS. 39a-39g—Three APOE isoforms bind to human LILRB4. FIG. 39a-c: Binding kinetics of APOE 2, 3, and 4 to LILRB4-Fc were measured using surface plasmon resonance (SPR). LILRB4-Fc was immobilized on Protein A biosensor tips and incubated with APOE concentrations ranging from 1.5625 nM to 100 nM. […] (FIGS. 39d-f) Binding kinetics of APOE 2, 3, and 4 to LILRB4-Fc were measured using Bio-layer Interferometry (Octet). LILRB4-Fc was immobilized on Protein A biosensor tips and incubated with APOE concentrations ranging from 44 nM to 1176 nM. […] (FIG. 39g) Binding kinetics of APOE 3 to His-LILRB4 was measured using microscale thermophoresis (MST).
(In general: SPR reads the build-up and loss of mass on a sensor chip optically.)

Assay [2] has as its target T2, human APOE2 (human, UniProt P02649). The description is as above. How it is done:
as §1

Assay [3] has as its target T3, human APOE4 (human, UniProt P02649). Described as above. How it is done: as §1
For assay [4], the target named is T1, human APOE3. The assay can be described thus: Bio-layer interferometry (Octet); LILRB4-Fc on Protein A biosensors, APOE 44-1176 nM. How it is done: as §1
(§2) Analyses of the binding interactions between LILRB4-Fc with APOE2, APOE3, and APOE4 were performed using the Octet RED96 (ForteBio, Pall Corporation). All assays were performed with the protein A dip-and-read biosensors (ForteBio) to capture LILRB4-Fc in a kinetics assay buffer (Fortebio), both association (300 s) and dissociation (600 s) of APOEs were monitored. Background wavelength shifts were measured from reference sensors with loading of LILRB4-Fc only and buffer.

Assay [5] addresses T2, human APOE2. The assay is described as above. How it is done: as §1, §2
The target of assay [6] is T3, human APOE4. Described as above. How it is done: as §1, §2

B1: LILRB4-ECD-Fc (Fc fusion)
chain: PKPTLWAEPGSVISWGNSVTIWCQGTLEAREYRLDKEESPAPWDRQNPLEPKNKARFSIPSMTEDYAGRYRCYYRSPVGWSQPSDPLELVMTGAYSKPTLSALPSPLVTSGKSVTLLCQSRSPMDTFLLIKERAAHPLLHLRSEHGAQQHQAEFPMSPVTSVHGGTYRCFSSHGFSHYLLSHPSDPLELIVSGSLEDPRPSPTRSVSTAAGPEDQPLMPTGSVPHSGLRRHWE
notes: also called LILRB4-Fc; LILRB4 ECD-Fc fusion protein; not shown: Fc part
One may read the Kd as the concentration at which binding is half-saturated. The low end stands for higher affinity, the high end for lower affinity. As to B1, the Kd is 2.48 nM with human APOE3 [1]; 5.53 nM with human APOE2 [2]; 3.57 nM in the assay with human APOE4 [3]; 61.7 nM in the assay with human APOE3 [4]; 60.7 nM with human APOE2 [5]; 48.4 nM with human APOE4 [6].
